Source: PubChem BioAssay AID1508642 (National Center for Advancing Translational Sciences (NCATS), 2021)
Among all 43,000 compounds or so, about 200 (0.47%) were called active. Inconclusive results (about 12%) are left out. Calls follow the shape of the dose curve; as a rule, active = well fitted cell-killing curve with a large enough effect; inconclusive = small, poorly fitted or top-dose-only effect, or effect the other way; inactive = flat fitted curve, though single readings scatter. Some of the results follow.

Test: Cell viability qHTS assay in S16 Pmp22-F2sN cells; also: nearly all actives have a fitted effect of over 65% in size
Settings: S16 Pmp22-F2sN Schwann cells viability, CellTiter-Glo, 24 h; series mostly up to 57.5 µM; activity change, negative = cytotoxicity: at the top concentration
Method in brief: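 Viability was measured by CellTiter-Glo luminescence (15 min, room temperature). This followed 24 h at 37 °C of compound exposure (23 nL pin transfer) in S16 Pmp22-F2sN Schwann cells, 500-1,000 per well.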
% is scaled to controls: 0 for no effect and ±100 for the full control effect.

Row | Structure (SMILES) | activity change, negative = cytotoxicity
1 | CCc1ccc(CNC(=O)c2cc3n(n2)CCCN(Cc2ccccc2)C3=O)cc1 | inactive: 8.08%
2 | Cc1ccc(Cn2c(=O)n(CCc3ccc(Cl)cc3)c(=O)c3ccccc32)cc1 | inactive: -1.04%
3 | Cc1ccc(-n2ncc3c(NC(C)c4ccccc4)ncnc32)cc1 (stereo unspecified) | inactive: 4.55%
4 | COc1ccc(NC(=O)Cn2c(=O)n(Cc3ccccc3OC)c(=O)c3cccnc32)cc1Cl | inactive: -6.9%
5 | COc1ccc(OC)c(NC(=O)C2Cc3ccccc3CN2S(=O)(=O)c2ccc(F)cc2)c1 (stereo unspecified) | inactive: -4.22%
6 | CC1=C(C(=O)Nc2ccc(Cl)cc2)C(c2ccccc2F)n2nc(SCc3cccc(Cl)c3)nc2N1 (stereo unspecified) | inactive: -2.8%
7 | Cc1ccc(-c2nc(CS(=O)CC(=O)NCc3ccccc3Cl)c(C)o2)cc1 (stereo unspecified) | inactive: 0.166%
8 | O=c1ccc2cc(S(=O)(=O)Nc3ccc(F)c(Cl)c3)ccc2[nH]1 | inactive: -2.74%
9 | CCOc1ccc2nc(SCC(=O)Nc3ccc(F)cc3)nc(-c3ccccc3)c2c1 | inactive: -0.181%
10 | COc1ccccc1NC(=O)CSC1=Nc2ccccc2C2=NC(CCC(=O)NCc3ccco3)C(=O)N12 (stereo unspecified) | inactive: 4.78%
11 | COC(=O)c1scc(-c2ccc(C)cc2)c1S(=O)(=O)Nc1cc(Cl)c(OC)cc1OC | inactive: 18.9%
12 | CCCCOc1ccc(Cn2c(=O)sc3ccccc32)cc1OC | inactive: -4.95%
13 | CCCn1c(CCC(=O)Nc2cc(OC)cc(OC)c2)nc2cccnc21 | inactive: -0.845%
14 | Cc1ccccc1CCNC(=O)c1ccc2c(c1)nc1n2CCOC1 | inactive: -1.62%
15 | CCOC(=O)c1[nH]cnc1C(=O)Nc1cccc(OC)c1 | inactive: -0.217%
16 | CCCn1c(CCC(=O)Nc2cc(C(=O)OC)cc(C(=O)OC)c2)nc2cccnc21 | inactive: 0.858%
17 | CCCN1CCN(c2nnc(-n3cccc3C(=O)Nc3cc(Cl)ccc3C)s2)CC1 | inactive: -1.7%
18 | CCSc1ncc(Cl)c(C(=O)Nc2nc3ccc(S(C)(=O)=O)cc3s2)n1 | inactive: 0.024%
19 | Cc1ccc(NC(=O)C2CCCN(S(=O)(=O)c3cccc4nsnc34)C2)cc1C (stereo unspecified) | inactive: 0.907%
20 | COc1ccc(-n2c(=O)c3sc4ccccc4c3n(C)c2=O)cc1 | inactive: 13.4%
21 | Cc1cc(NC(=O)CCn2c(=O)c3cccn3c3cccnc32)ccc1Br | inactive: 11.4%
22 | CCC(=O)N1c2ccccc2CC1C(=O)NCCc1cc(OC)c(OC)c(OC)c1 (stereo unspecified) | inactive: 2.8%
23 | CCc1cccc(NC(=O)CN(c2ccc(C)c(C)c2)S(=O)(=O)c2ccsc2C(=O)OC)c1 | inactive: -6.22%
24 | Cc1ccc(C)c(N2CCN(C(=O)CN3C(=O)COc4ccc(S(=O)(=O)N5CCCC5)cc43)CC2)c1 | inactive: 7.77%
25 | COc1ccc(C(=O)NCC(c2ccco2)S(=O)(=O)c2ccc(F)cc2)cc1 (stereo unspecified) | inactive: -1.7%
26 | Cc1ccc(C)c(Cn2c(=O)n(CCCCC(=O)NCc3ccc4c(c3)OCO4)c(=O)c3ccccc32)c1 | inactive: 5.14%
